Source: patent publication US20190330336A1

B1: SRP1558-A06 (scFv)
chain: EVQLLESGGGLVQPGGSLRLSCAASGFTFSESTMSWVRQAPGKGLEWVGFITSDSGTTDYADSVKGRFTISRDNSKNTLYLQMNSLRAEDTAVYYCAKVFEGGVRPFSDYWGQGTLVTVSSGGGGSGGGGSGGGGSEIVLTQSPGTLSLSPGERATLSCRASQSVSSNPLAWYQQKPGQAPRLLIYGASSRATGIPDRFSGSGSGTDFTLTISRLEPEDFAVYYCQQYMAGPPTFGQGTKVEIKAAGSDQ[human IgG1 Fc with changes cut from this listing]
B2: SRP1558-F01 (scFv)
chain: EVQLLESGGGLVQPGGSLRLSCAASGFTFPDSSMSWVRQAPGKGLEWVGVITDNSGNTDYADSVKGRFTISRDNSKNTLYLQMNSLRAEDTAVYYCAKVFEGGVRPYSDYWGQGTLVTVSSGGGGSGGGGSGGGGSEIVLTQSPGTLSLSPGERATLSCRASQSVSSGNPAWYQQKPGQAPRLLIYGASSRATGIPDRFSGSGSGTDFTLTISRLEPEDFAVYYCQQYTAGPPTFGQGTKVEIKAAGSDQ[human IgG1 Fc with changes cut from this listing]
B3: SRP1448-D09 (scFv)
chain: EVQLLESGGGLVQPGGSLRLSCAASGFTFTDSSMSWVRQAPGKGLEWVGVITGNSGTTDYADSVKGRFTISRDNSKNTLYLQMNSLRAEDTAVYYCAKVYEGGVRPYSDYWGQGTLVTVSSGGGGSGGGGSGGGGSEIVLTQSPGTLSLSPGERATLSCRASQSVSSSYLAWYQQKPGQAPRLLIYGASSRATGIPDRFSGSGSGTDFTLTISRLEPEDFAVYYCQQDTAGPPTFGQGTKVEIKAAGSDQ[human IgG1 Fc with changes cut from this listing]

Target: cynomolgus LAG3 on 293T cells (cynomolgus monkey)
Test: flow cytometry on 293T cells expressing cynomolgus LAG3

Kd [nM] | Binder
0.3 | B1
0.7 | B2
1.6 | B3
